# In PubChem BioAssay AID1460 (National Center for Advancing Translational Sciences (NCATS), 2008):
# The whole screen tested about 270,000 compounds, of which about 5,800 (2.1%) were called active. Inconclusive results, whose numbers are uncertain, are shown with a selection of clear calls. Calls come from the whole dose curve; as a rule, active = well fitted inhibition curve with a large enough effect; inconclusive = small, poorly fitted or top-dose-only effect; inactive = flat fitted curve, though single readings scatter. Where the call is inconclusive, the potency comes from a doubtful curve fit.
# Molecular target: Microtubule-associated protein tau (Homo sapiens) (UniProt P10636)
# Experiment: qHTS for Inhibitors of Tau Fibril Formation, Thioflavin T Binding; note: nearly all actives have a fitted effect of over 55% in size
# Conditions: recombinant tau K18 P301L (four-repeat tau fragment), heparin-induced fibrillization, ThT fluorescence; series mostly up to 57.4 µM; activity, negative = inhibition: at the top concentration
# Outline: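 Recombinant human tau K18 fragment […] carrying P301L, 15 uM unlabeled plus 0.24 uM Alexa 594-labeled, was fibrillized with 20 uM heparin in 100 mM sodium acetate pH 7 for 6 hr at 37 C; 30 uM ThT fluorescence read after 1 hr.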
# % is set by controls: 0 for no effect and ±100 for the full control effect; potency is the fitted concentration of half-maximal effect; tags give direction and shape of the fitted curve.
# Chain of UniProt P10636 (P10636 whole entry, looked up): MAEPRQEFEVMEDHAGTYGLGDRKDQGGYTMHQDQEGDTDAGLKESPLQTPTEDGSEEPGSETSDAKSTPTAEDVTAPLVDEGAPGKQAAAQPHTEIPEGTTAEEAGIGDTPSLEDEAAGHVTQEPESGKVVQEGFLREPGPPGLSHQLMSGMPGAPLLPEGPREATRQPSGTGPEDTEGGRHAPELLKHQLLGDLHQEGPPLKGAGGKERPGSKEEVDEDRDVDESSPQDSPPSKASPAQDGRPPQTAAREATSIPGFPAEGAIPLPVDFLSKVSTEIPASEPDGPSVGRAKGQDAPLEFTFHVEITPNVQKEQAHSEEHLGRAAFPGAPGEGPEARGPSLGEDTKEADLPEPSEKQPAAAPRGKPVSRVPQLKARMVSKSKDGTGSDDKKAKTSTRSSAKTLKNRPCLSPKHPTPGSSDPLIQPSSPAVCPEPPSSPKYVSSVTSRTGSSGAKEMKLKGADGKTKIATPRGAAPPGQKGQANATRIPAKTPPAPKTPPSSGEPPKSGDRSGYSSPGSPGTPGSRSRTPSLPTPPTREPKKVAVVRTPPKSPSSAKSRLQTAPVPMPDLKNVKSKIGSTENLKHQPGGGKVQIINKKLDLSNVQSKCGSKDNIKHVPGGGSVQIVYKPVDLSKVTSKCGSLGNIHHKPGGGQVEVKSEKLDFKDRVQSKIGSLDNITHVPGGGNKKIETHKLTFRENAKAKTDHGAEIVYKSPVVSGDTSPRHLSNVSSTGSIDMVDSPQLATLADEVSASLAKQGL
SMILES,"activity, negative = inhibition",Potency
Cc1ccc(NC(=O)Cn2cc(S(=O)(=O)N3CCCC3)c(S(=O)(=O)N3CCCC3)c2)cc1C,inactive: -0.301%,
CCOC(=O)c1c(-c2ccc(-c3ccccc3)cc2)csc1NC(=O)C1C2CCC(O2)C1C(=O)O (stereo not drawn),,"inconclusive: 20 µM [inhibitor, partial curve]"
COc1ccc(C(=O)NCCn2cc(SCC(=O)NCc3ccco3)c3ccccc32)cc1,,"inconclusive: 22.4 µM [inhibitor, partial curve]"
CCN1CCN(c2cc(C)c3cc(NC(=O)/C=C/c4cccc(Cl)c4)ccc3n2)CC1,,active: 3.16 µM
O=C(Nc1ccc(NC(=O)c2ccco2)nc1)c1ccccn1,,"inconclusive: 3.98 µM [inhibitor, full curve]"
COc1ccc(-n2cc(C(=O)NC(C)c3ccccc3)c3ccccc3c2=O)cc1 (stereo not drawn),,"inconclusive: 25.1 µM [inhibitor, partial curve]"
COc1ccc2nc(Nc3nc(-c4ccncc4)cs3)sc2c1,,"inconclusive: 4.47 µM [inhibitor, partial curve]"
CCOC(=O)c1ccc(-c2c(C(=O)OCC)oc3cc(O)c(CC)cc3c2=O)o1,,"inconclusive: 3.16 µM [inhibitor, full curve, poor fit]"
OC[C@H](O)[C@H](O)[C@@H](O)[C@@H](O)[C@@H]1SC(c2ccccc2)=NN1c1ccccc1,,"inconclusive: 35.5 µM [inhibitor, single point]"
C=CCc1c(O)nc(SCC(=O)c2ccccc2)[nH]c1=O,,"inconclusive: 22.4 µM [inhibitor, partial curve]"
CSc1nc(Cl)c(Cc2ccc(OC(C)C)cc2)c(N(C)C)n1,,"inconclusive: 17.8 µM [inhibitor, single point]"
Cc1n[nH]c(=S)n1/N=C/c1ccc(-c2ccccc2[N+](=O)[O-])o1,,"inconclusive: 15.8 µM [inhibitor, partial curve]"
O=C(CCCc1ccccc1)c1ccc2c(c1)OCCO2,,"inconclusive: 14.1 µM [inhibitor, partial curve]"
CC1CN(C(=O)c2ccc(COc3ccc(C(C)C)cc3)o2)CC(C)O1 (stereo not drawn),,"inconclusive: 39.8 µM [inhibitor, single point]"
O=C(O)/C(=C/c1ccco1)NC(=O)c1ccccc1,,"inconclusive: 31.6 µM [inhibitor, single point]"
C=CCn1c(SCC(=O)c2cc(C)n(CCOC)c2C)nc2sc(C)c(C)c2c1=O,inactive: 14.3%,
NCC1O[C@@H](OC2C(N)CC(N)C(O)C2O[C@@H]2OC(CO)C(O)C2O)C(N)C(O)C1O (stereo partly drawn),inactive: -6.54%,
CCOC(=O)N1CCN(C(=O)C2CCCN(c3nc4ccc(OCC)cc4s3)C2)CC1 (stereo not drawn),,"inconclusive: 7.08 µM [inhibitor, full curve]"
COc1ccc2[nH]c(=O)c(NC(N)=S)nc2c1,,"inconclusive: 12.6 µM [inhibitor, partial curve]"
Cc1cc(C)c2nc(/N=C(\N)NC(=O)Nc3ccccc3)nc(C)c2c1,,"inconclusive: 11.2 µM [inhibitor, partial curve]"
Cc1nnc(NC(=O)COc2ccc3c(C)cc(=O)oc3c2)s1,,"inconclusive: 11.2 µM [inhibitor, partial curve]"
CCOC(=O)C(=CNc1ccc(Cl)cn1)C(=O)OCC,inactive: -7.99%,

SMILES,"activity, negative = inhibition",Potency
CCOC(=O)c1cc(C)nc(Sc2ccc(C)cc2)c1C#N,inactive: -10.7%,
Cc1ccc(S(=O)(=O)NNC(=O)C(=O)NNS(=O)(=O)c2ccc(C)cc2)cc1,inactive: 4.63%,
CCCC[C@@H]1C[C@H]1C(NC(=O)c1ccco1)c1ccc(C(=O)OC)cc1 (stereo partly drawn),,"inconclusive: 20 µM [inhibitor, single point]"
COc1ccc(C(=O)NCCSc2c(C)[nH]c3ccccc23)cc1,,"inconclusive: 12.6 µM [inhibitor, partial curve]"
O=C(O)CSCC(=O)Nc1cc(C(F)(F)F)ccc1Cl,inactive: -1.33%,
Cc1ccsc1/C=N/Nc1nc2ccccc2[nH]1,,"inconclusive: 12.6 µM [inhibitor, partial curve]"
Cc1[nH]c2ccccc2c1/C=C/c1nc2ccccc2c(=O)n1CCO,,"inconclusive: 3.55 µM [inhibitor, partial curve]"
COc1c(O)cc2c(=O)oc3c(OC)c(O)cc4c(=O)oc1c2c34,,"inconclusive: 14.1 µM [inhibitor, partial curve]"
CCOc1ccc(Cn2c(CNS(=O)(=O)c3ccc([N+](=O)[O-])cc3)nc3cccnc32)cc1,inactive: -3.72%,
CCOC(=O)c1cnc2c(ccc3ccccc32)c1Nc1ccc(OC)c(OC)c1,,"inconclusive: 39.8 µM [inhibitor, single point]"
Cc1cccc(C2C=C(c3ccc(F)cc3)Nc3nc4ccccc4n32)c1 (stereo not drawn),,"inconclusive: 28.2 µM [inhibitor, partial curve]"
O=[N+]([O-])c1ccc(N2CCN(CCOCCO)CC2)c([N+](=O)[O-])c1,inactive: -11.2%,
COc1ccccc1CN(Cc1nc2ccccc2c(=O)[nH]1)C(=O)Nc1cccc(C)c1,,"inconclusive: 39.8 µM [inhibitor, single point]"
CC(=O)c1ccc(N2CCN(C(=O)/C=C/c3cccs3)CC2)cc1,,"inconclusive: 5.01 µM [inhibitor, partial curve, poor fit]"
O=C(CCl)Nc1ccc(Oc2cnc3ccccc3n2)cc1,,"inconclusive: 35.5 µM [inhibitor, single point]"
Cc1ccc(C)c(CN2C(=O)c3ccccc3S(=O)c3ccc(C(=O)NCCc4ccc(Cl)cc4)cc32)c1 (stereo not drawn),inactive: -11%,
O=C1OC2(CCCCC2)OC(=O)C1=CNc1ccc2c(c1)OCO2,inactive: 0.782%,
CCCC(=O)NC(=S)N1CCN(c2ccc([N+](=O)[O-])cc2)CC1,,"inconclusive: 2.82 µM [inhibitor, full curve]"
CCN(CC)c1ccc(/C=N/NC(=O)CN2CCCc3ccccc32)cc1,,"inconclusive: 15.8 µM [inhibitor, partial curve]"
CC(C)N(Cc1nc(COc2ccccc2)no1)Cc1nccn1C,inactive: -9.34%,
CN(C)c1ccc(CNC(=O)C2CCN(S(=O)(=O)c3cn(C)cn3)CC2)cc1,inactive: 2.17%,
